Data on 110 sequences can be found in the supplement of paper PMC3334620.

In all, about 33,000 sequences were measured (“E-score (-0.5 to 0.5)”: median about -0.035, highest 2% from about 0.35 on). Some of the results follow.

This assay concerns the target T1, Pdr3 (UniProt P33200).
T1 sequence: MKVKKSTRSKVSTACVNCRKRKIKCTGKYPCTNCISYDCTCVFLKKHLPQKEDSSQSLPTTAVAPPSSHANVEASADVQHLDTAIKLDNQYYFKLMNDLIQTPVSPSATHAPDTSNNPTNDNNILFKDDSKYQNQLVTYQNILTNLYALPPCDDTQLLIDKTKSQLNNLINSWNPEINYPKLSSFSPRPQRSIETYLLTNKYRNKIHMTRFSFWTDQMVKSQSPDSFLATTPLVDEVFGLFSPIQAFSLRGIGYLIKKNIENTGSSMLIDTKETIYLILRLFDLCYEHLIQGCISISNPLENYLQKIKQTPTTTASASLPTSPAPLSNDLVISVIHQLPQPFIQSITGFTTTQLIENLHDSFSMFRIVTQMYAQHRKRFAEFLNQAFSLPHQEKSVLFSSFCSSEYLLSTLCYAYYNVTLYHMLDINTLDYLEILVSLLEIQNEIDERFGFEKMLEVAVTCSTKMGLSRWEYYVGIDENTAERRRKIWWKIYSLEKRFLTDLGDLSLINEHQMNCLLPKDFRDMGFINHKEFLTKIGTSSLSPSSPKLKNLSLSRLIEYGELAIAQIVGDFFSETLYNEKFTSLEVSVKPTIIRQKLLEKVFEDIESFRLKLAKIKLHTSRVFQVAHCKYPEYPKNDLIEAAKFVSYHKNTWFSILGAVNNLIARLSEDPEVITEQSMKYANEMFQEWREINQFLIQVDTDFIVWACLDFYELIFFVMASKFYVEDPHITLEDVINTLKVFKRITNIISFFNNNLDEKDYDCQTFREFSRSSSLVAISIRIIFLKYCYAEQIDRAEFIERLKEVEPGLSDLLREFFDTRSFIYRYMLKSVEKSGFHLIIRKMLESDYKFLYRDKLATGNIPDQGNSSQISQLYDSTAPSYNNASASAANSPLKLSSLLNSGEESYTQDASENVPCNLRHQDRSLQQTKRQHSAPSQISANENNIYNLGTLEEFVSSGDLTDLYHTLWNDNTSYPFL
The assay is described as follows: PBM E-score (8-mer binding enrichment) (E-score (-0.5 to 0.5)); higher = stronger / more preferred TF binding; most listed sequences are background and not binding sites. Conditions: protein concentration: 200 nM; construct: GST-full length. The method in brief: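 Full-length yeast transcription factors or their DNA-binding domains, GST-tagged and expressed with PURExpress, were applied at about 100-200 nM to universal all-10-mer Agilent arrays. These arrays had been made double-stranded by primer extension on fresh or once-stripped slides. Detection used fluorescent anti-GST, normalisation used masliner, and E-scores for ungapped eight-base words pooled with reverse complements came from the Universal PBM Analysis Suite.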
In the case of AAAGAGGC, the “PBM E-score” value was -0.26.

Turning to CCATCCGC, the “PBM E-score” value is 0.155.

Regarding AAGTTTGT, the “PBM E-score” value is 0.0761.

With AACCGATC, the “PBM E-score” value amounted to 0.069.

On to GTCACATA, for which the “PBM E-score” value was -0.051.

Consider CATCTCAC, for which the “PBM E-score” value amounted to 0.011.

Take CTCTCTCA: the “PBM E-score” value was -0.0973.

As for CTCCGGCC, the “PBM E-score” value stood at 0.0522.

Regarding CACACACC, the “PBM E-score” value was -0.00112.

With AAGGATTG, the “PBM E-score” value is -0.131.

Consider ACATCGTG, for which the “PBM E-score” value was -0.0397.

For AGCACCAA, the “PBM E-score” value is -0.0317.

For AAGTACCG, the “PBM E-score” value stood at 0.0857.

On to CACGCCTG, for which the “PBM E-score” value was -0.342.

Consider CTGAACGA, for which the “PBM E-score” value is -0.218.

Take ATGCCGTA: the “PBM E-score” value is -0.0431.

With CGCATTGC, the “PBM E-score” value came out at 0.0617.

Take CGGATCAC: the “PBM E-score” value came out at 0.391.

In the case of GCCTTACA, the “PBM E-score” value is -0.322.

Consider AGACAGCC, for which the “PBM E-score” value is -0.0779.

As to TATACGGA, the “PBM E-score” value came to 0.221.

Regarding CCCTTTAA, the “PBM E-score” value was -0.235.

Turning to AAGTTCTC, the “PBM E-score” value is 0.0167.

In the case of AGTAAGCG, the “PBM E-score” value was -0.0829.

With CCACCGTC, the “PBM E-score” value turned out to be 0.013.

In the case of TATGCTAA, the “PBM E-score” value was -0.247.

As for TCGTTACA, the “PBM E-score” value was -0.214.

With GGTAGGGA, the “PBM E-score” value is -0.0636.

On to AAGGCCGG, for which the “PBM E-score” value was 0.328.

With CAAAGTTA, the “PBM E-score” value was -0.00342.

As for CTGGTTAC, the “PBM E-score” value is -0.096.

For the sequence ATCTTAAT, the “PBM E-score” value was -0.24.

With CAAGCGAA, the “PBM E-score” value stood at 0.00333.

ATTTGGGG: the “PBM E-score” value is 0.0218.

In the case of TCGGCCCA, the “PBM E-score” value is 0.124.

Regarding GGCTCGGA, the “PBM E-score” value stood at 0.338.

As to GAGGCGAC, the “PBM E-score” value is -0.0756.

As for AGCAACTA, the “PBM E-score” value was found to be 0.092.

In the case of CCTTAGTC, the “PBM E-score” value is -0.211.

On to AATCCATC, for which the “PBM E-score” value is 0.0261.

For the sequence CTGTAGCA, the “PBM E-score” value was -0.251.

Consider GCTTAGAA, for which the “PBM E-score” value was -0.253.

Consider CGAACGCA, for which the “PBM E-score” value turned out to be 0.152.

As to GCGCCTCA, the “PBM E-score” value came to 0.105.

As to ATCGCGGC, the “PBM E-score” value was 0.213.

CCATGCAG: the “PBM E-score” value was -0.0248.

With ACATTTCT, the “PBM E-score” value is 0.0214.

Turning to AGGGCAAC, the “PBM E-score” value turned out to be 0.0207.

Regarding CACTCAAG, the “PBM E-score” value was -0.336.

AACCGGCA: the “PBM E-score” value was determined as 0.158.

With AAAACAAC, the “PBM E-score” value is -0.346.

With CAGGTTGA, the “PBM E-score” value was -0.18.

With CCTCCATC, the “PBM E-score” value is -0.14.

As to CACATAGG, the “PBM E-score” value was -0.156.

Turning to AAAATAAG, the “PBM E-score” value is -0.194.

For ATTGCTTC, the “PBM E-score” value stood at 0.00849.

GCTTCTAA: the “PBM E-score” value was -0.359.

Take CGCAACAA: the “PBM E-score” value was -0.0714.

On to CCCTTAAA, for which the “PBM E-score” value was -0.188.

Consider ATTTCCAG, for which the “PBM E-score” value was -0.0734.

Regarding CCCATATC, the “PBM E-score” value was found to be 0.0375.

Regarding CCAACCAC, the “PBM E-score” value was found to be 0.0773.

Turning to AACTCACA, the “PBM E-score” value amounted to 0.0684.

With TCGGGCCA, the “PBM E-score” value amounted to 0.093.

Consider ACTCTTTG, for which the “PBM E-score” value is -0.122.

Turning to ACTACCCT, the “PBM E-score” value is -0.179.

Take ACCCTTAA: the “PBM E-score” value was -0.247.

Consider AGCTGCAC, for which the “PBM E-score” value was -0.122.

Take GACTCCAC: the “PBM E-score” value was -0.13.

In the case of CTAAGAAA, the “PBM E-score” value was -0.0587.

On to GCAGGCAC, for which the “PBM E-score” value is -0.117.

As to ACGACCGT, the “PBM E-score” value was -0.267.

As for AGGATCGC, the “PBM E-score” value is -0.021.

With CGAGTACA, the “PBM E-score” value was determined as 0.00133.

For the sequence ACCAACAC, the “PBM E-score” value was -0.03.

As for CCGTCCAA, the “PBM E-score” value was found to be 0.199.

As for AGCGTTTG, the “PBM E-score” value is -0.168.

Regarding GGGCGGGA, the “PBM E-score” value amounted to 0.35.

CGGAGTGC: the “PBM E-score” value was 0.343.

Regarding ACAGGGGT, the “PBM E-score” value was -0.294.

AGCAGCAA: the “PBM E-score” value is 0.0334.

As to AGATAGGA, the “PBM E-score” value was -0.187.

Turning to ACATCGAA, the “PBM E-score” value was 0.117.

For AGGAGTAG, the “PBM E-score” value was -0.0728.

Take CAACAAGA: the “PBM E-score” value is -0.122.

With AGGACCAA, the “PBM E-score” value was -0.0331.

In the case of AACTCCAA, the “PBM E-score” value was -0.0391.

Turning to CCACCTAC, the “PBM E-score” value is -0.303.

For the sequence CATAAAAG, the “PBM E-score” value is -0.125.

On to AGCGTGCC, for which the “PBM E-score” value came out at 0.00446.

For ACTGGCTA, the “PBM E-score” value is -0.0723.

For the sequence CTCAGTAC, the “PBM E-score” value is -0.183.

Consider GAGTTCCA, for which the “PBM E-score” value was 0.0759.

Regarding CGCCCCAA, the “PBM E-score” value was 0.183.

Consider GCTGTCCC, for which the “PBM E-score” value came out at 0.0347.

Consider CGTTTCTC, for which the “PBM E-score” value was -0.0328.

For AAAAGGAT, the “PBM E-score” value was -0.137.

As to GACGTCAC, the “PBM E-score” value was -0.00811.

ACCATAAC: the “PBM E-score” value is -0.119.

Take CCTCTGTC: the “PBM E-score” value was -0.0785.

In the case of CACGTAAA, the “PBM E-score” value is -0.177.

With ACTTACAT, the “PBM E-score” value is -0.155.

On to AGAAACAC, for which the “PBM E-score” value is -0.139.

Turning to CCCGCTAC, the “PBM E-score” value was determined as 0.105.

For the sequence CGAGGTCA, the “PBM E-score” value was -0.0832.

Consider GCTCCCGA, for which the “PBM E-score” value worked out at 0.136.

CAAAATCA: the “PBM E-score” value is 0.0323.

TCTCAAGA: the “PBM E-score” value was -0.214.

As for CGTATGGC, the “PBM E-score” value was -0.115.

Consider GTCTTGGA, for which the “PBM E-score” value is -0.0896.
